# Laboratory results reported in the supplement of paper PMC3334620.
# Whole data set: some 33,000 sequences, median “E-score (-0.5 to 0.5)” near -0.012, cut for the highest 2% near 0.27. This is one part of the list.
# Biological target: T1, Vhr1 (UniProt P40522)
# T1 sequence: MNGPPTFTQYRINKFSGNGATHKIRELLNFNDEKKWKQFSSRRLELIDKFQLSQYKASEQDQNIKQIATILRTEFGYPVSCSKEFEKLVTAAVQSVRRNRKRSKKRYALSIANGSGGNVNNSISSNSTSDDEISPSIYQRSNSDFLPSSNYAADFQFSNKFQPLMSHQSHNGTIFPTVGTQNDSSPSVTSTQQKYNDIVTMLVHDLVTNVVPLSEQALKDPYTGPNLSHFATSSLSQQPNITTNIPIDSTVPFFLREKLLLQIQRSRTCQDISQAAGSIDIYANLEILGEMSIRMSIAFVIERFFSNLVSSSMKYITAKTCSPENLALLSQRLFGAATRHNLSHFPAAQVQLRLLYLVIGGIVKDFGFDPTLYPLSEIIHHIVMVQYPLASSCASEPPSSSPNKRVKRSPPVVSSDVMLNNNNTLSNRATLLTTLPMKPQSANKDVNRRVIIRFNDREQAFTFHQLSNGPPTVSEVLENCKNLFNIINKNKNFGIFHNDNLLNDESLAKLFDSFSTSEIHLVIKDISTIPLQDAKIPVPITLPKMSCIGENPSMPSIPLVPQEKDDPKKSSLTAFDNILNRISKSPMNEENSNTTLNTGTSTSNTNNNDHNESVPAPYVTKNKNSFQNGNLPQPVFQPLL
# Assay: PBM E-score (8-mer binding enrichment) (E-score (-0.5 to 0.5)); higher = stronger / more preferred TF binding; most listed sequences are background and not binding sites
# Settings: protein concentration: 200 nM; construct: GST-full length
# Experimental: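 Universal 'all 10-mer' protein binding microarrays (Agilent AMADID 015681) probed with GST-tagged S. cerevisiae TFs (full-length or DBD) made by in vitro transcription/translation (PURExpress), about 100-200 nM. Bound TF was detected with fluorescent anti-GST. Each ungapped 8-mer (which stands for itself and its reverse complement) is scored by the PBM enrichment score (E-score), a modified Wilcoxon-Mann-Whitney statistic from -0.5 to +0.5, computed with the Universal PBM Analysis Suite. Scale: above 0.35 generally sequence-specific binding.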
row,Sequence,PBM E-score
1,ATACGTTA,-0.112
2,CTAGCCCC,-0.145
3,ATCAGAGC,0.0322
4,GCACTAGA,-0.219
5,CCTCGTGC,-0.0709
6,CCTCGGAA,-0.0541
7,CAAGCGAC,0.0878
8,ACTCATAG,0.264
9,GCTTAGCA,-0.214
10,GATGAACA,-0.0578
11,CTTGTTTC,-0.142
12,ATCTTCAT,0.0461
13,ACCCTCTA,-0.0527
14,ACATGGAT,0.113
15,AACTGCGT,0.0502
16,CATCTTTA,-0.0551
17,AAAATTAT,-0.0112
18,ATAGTCCC,0.0218
19,ATCCGGAA,0.0341
20,AACGACAC,0.105
21,GCGCGGCA,0.122
22,TACCGTAA,-0.157
23,GCTATCGA,0.0615
24,AAAGGGTC,-0.103
25,AGGGCACG,0.00741

row,Sequence,PBM E-score
1,GTAGTCCA,-0.0646
2,CTCCTCAC,-0.192
3,CTCAATAA,-0.0777
4,AGTCCAAT,0.0934
5,TCAACACA,0.223
6,ATGCATCC,-0.152
7,GAATCCTA,-0.0164
8,CCTGCACA,-0.0959
9,ATGCATAA,-0.0382
10,CCCGGTAC,0.00892
11,CTTGGTGC,-0.00556
12,CATTCATA,0.267
13,ACCCTAAG,-0.114
14,TCTCTTCA,-0.283
15,AAAGCCTA,-0.115
16,CTCCCCAG,0.0578
17,ATGTGTTA,0.195
18,TAGGTGAA,0.0656
19,CTAGGGCA,-0.233
20,AGTCTCGC,0.131
21,AACGGCAA,-0.0038
22,GCGACCAA,0.062
23,CGCGTAAA,-0.149
24,GTAGGAAC,0.171
25,GAATACCA,0.173

row,Sequence,PBM E-score
1,AAAGGGGC,-0.186
2,AAGCCGGG,0.0382
3,TCCCTACA,-0.033
4,CGTTGTGA,-0.0231
5,CCTCTCAC,-0.175
6,CACAGAAA,0.0843
7,CCCAAGTC,-0.0572
8,GACTATGA,0.289
9,CGGCATAA,-0.0941
10,CTCAGGGC,0.0201
11,CTGCCTCC,-0.0893
12,TTAACCAA,0.163
13,GAAACGCA,0.0152
14,ACCTTGGC,-0.017
15,CAAACATG,0.0891
16,CTTGGTTC,0.116
17,ACGTCGTC,-0.0867
18,CACAATAC,0.17
19,AGCCAAAA,-0.165
20,AGTTCGTA,0.00672
21,TGCGTCCA,-0.0845
22,CTTCCGCA,-0.0559
23,ACATATCA,0.281
24,CTGGAAAG,-0.217
25,CGAGTGGC,-0.0443

row,Sequence,PBM E-score
1,CTATGGAA,-0.075
2,AAATTACC,8e-05
3,AGAGTAGC,-0.055
4,GAGAAAAC,-0.139
5,AAAAAAAT,-0.0521
6,TGGTAACA,-0.089
7,GAAAACGA,-0.222
8,CTCAGAGC,-0.0272
9,ATAACCGG,-0.157
10,AGACTATG,0.187
11,ATGAGTTC,0.00071
12,GTATTATA,0.254
13,AATATAGT,0.2
14,ATATGAAA,-0.0688
15,ATAATTGG,-0.0899
16,TATCAGAA,-0.199
17,TCCGACCA,0.117
18,CTGCAGTC,0.0724
19,CAACACTA,0.0341
20,AACACATT,0.201
21,AGTTGTCG,0.112
22,GAAATGGA,-0.142
23,ACTATGCT,0.109
24,AACTCGGG,0.0438
25,AGATGTCG,0.0632

row,Sequence,PBM E-score
1,ACCCGCGA,0.144
2,CATGGTCG,0.105
3,GGCAACCC,0.00021
4,AGGCGGCA,-0.101
5,CCTAAGAC,-0.0658
6,GAGCAGAA,-0.0939
7,CGCGCCTA,0.00714
8,TGAGTAAA,0.108
9,GGATAGGA,0.0686
10,ACTTGGAT,-0.0661
11,ACAAGGCG,0.0686
12,TCGCGCAA,0.0709
13,TTAAATAA,-0.137
14,CGTGGAGC,0.014
15,CAGGAATG,0.0121
16,ATCCGTAA,-0.0459
17,GACGCAGA,0.0137
18,GAGTTAAA,-0.103
19,GGAAGGAC,-0.0383
20,CATAGATG,-0.0858
21,GGAGAGCA,-0.131
22,GAGGGCGC,-0.118
23,ACCCACAC,0.185
24,GGGCGCTA,-0.224
25,ATCCCAAG,-0.256

row,Sequence,PBM E-score
1,CGTCCAAG,-0.217
2,ATCTTATC,0.0813
3,TGTCTAAA,-0.149
4,CCTGGGTC,0.15
5,AGTTGATG,0.0245
6,AAGTACAG,-0.194
7,ATCTGAAG,-0.111
8,AATCGTTC,-0.0435
9,AAATTGCT,-0.134
10,CGCAGCAA,-0.0193
11,AGAGGCTC,-0.191
12,CATTAATG,0.226
13,ACGGGCAG,0.146
14,CCACAGTA,0.144
15,ATTTGTTA,0.16
16,GAGATTAA,-0.0349
17,CGAGCGGA,0.0286
18,CAGTAATA,0.0862
19,CAATGCAC,0.167
20,GGGACTAC,0.0872
21,AATATGCC,-0.0384
22,CTTGGTAC,0.0505
23,CTTTTCAC,-0.234
24,CTGATTAA,0.191
25,AGACTGCT,-3e-05

row,Sequence,PBM E-score
1,AGATCTGC,-0.0821
2,GCGTTCCC,-0.16
3,AAACATCT,-0.253
4,GGTATCCA,0.103
5,GTTGGTCA,0.261
6,AACTAGCA,0.145
7,ACATCCTG,0.213
8,AGTAATCG,0.141
9,AATCTGTA,0.128
10,ATCACATC,0.175
11,GTCCTACA,0.0428
12,ACTTGATC,-0.0156
13,GGACGTTA,-0.248
14,AGCATAAG,0.041
15,AAAATCCA,-0.0618
16,GACTACCC,0.254
17,AATAGGCG,-0.117
18,AACTCTGT,-0.0226
19,CGCCTACC,-0.0591
20,AGACGTGC,-0.109
21,GCGTAAGA,-0.183
22,AGCCTGTA,-0.0156
